From the RNAGym collection of RNA variant scans (doi:10.7554/elife.90254)
Read counts are not given, so values of variants with three or more changes are uncertain.

B1: LINE1-full (parent)
chain: UACGUAGGUGGUUUUCCCCUGAUAGUGCUAAGGGGGCCUGGAAGUUUGGACUGGGCAGAGCUCAACACAGCGUGGCAAAGUGGCUGUGGCUAGACUGCCUCUCUGGAUUCCUCGUCACUCAGCAGGGCAUCUCUGAGAGAAAUGCC

Variants of: B1
Experiment: self-cleavage, relative activity (ratio to wild type); higher = more cleavage; in vitro, sequencing; the parent is a self-cleaving ribozyme

Variant | self-cleavage
A22G G53A C123U | 0.98
U39A U46C U52G A57G A78G C90A | 0.03
U12C A22G C37G A124G G144A | 0.89
U14C A64C U87C A142G U143A | 0
U14C U29C A42G | 0.27
C120U U130C C145U | 1.7
U5C U13A U102C U109C | 1.2
U5C A24G U26C U91C | 2.3
U13C U112C C113A | 0.63
U15C U108C U143C | 1.76
U46C A57C A65G | 0.37
A2G C68U A117U A138G | 0.51
U15C U115A C145A | 1.45
A50G G125A A142G | 0.36
A2U A31G U134C | 1.12
G34U G80A U130C | 1.88
G33U U91C U130C | 1.17
A22G A42U U52C A57G | 0.54
G7U U100G U143A | 2.09
U52C A77G A140G A141G | 2.3
A78G U115C G122A | 0

Variant | self-cleavage
U29A U45G A140G | 1.21
A22G A117G U119A | 1.59
G11A G89U U96C | 0.04
U13C A50G A67G | 0
U52G G93C A138U A142G | 0
A22G A57G A64G | 0.43
U47C U85C G135A | 0.33
C51U U132A A138U | 1.71
A24G G25A G72U | 1.33
C3U A24G U91A A92G U119C A140G C146U | 0
U5C U39G A65U A79G | 0.23
U15C C37U A59G | 0.08
U12C A79G A136G | 0.93
U46A U47C A50U | 0.89
G36A A57G A65G A117G | 0.06
U52G U109C A138U | 0.77
G32A U46A A67G | 0.75
A42G A43U U119C U132C A138U | 2.7
G34A U100C U112C | 0.86
U14A A59C A94G A136U A140G | 1.84
U39C U100C U112C | 1.67

Variant | self-cleavage
G55A U81C A136G | 0.5
U14C A57G A69U A140U | 0.13
U45G U73A U87C U96A A107G | 0.17
C51A A107U C123U | 0.44
U20C U39C U73C U134C | 1.15
A6G A136U A140G | 0.97
A2G U108C A136G | 2.3
U46C A59U A77G U100C U132C | 0
U26G A31G A140G | 1.08
U15A G41U A79U A129G | 1.37
G55C A57G A65G | 0
A30U U132A A142C | 0.54
A24U U26C A65G A142G | 0
U47A U96C G122C A129G | 0.09
U13C C68U A142G | 0.08
A6G U62C U109C | 0.48
A94G U102C A124U | 0.39
A22G A43G U108C | 0
C90G G126U A138U | 0.03
U45C A57U U62A A64G | 0.21
U20A A42G A142G | 0.85

Variant | self-cleavage
U9A U29A A124C A140G U143A | 0.5
G36A U81G C90U | 0.06
A57G G58A A67U U96C A140G | 0.08
A6G G21A A79G A94G U100C | 0
A24G U96C A129U | 0.22
U14C A42U A140G | 0.66
U13C A64U C66U U96C A129C | 0.07
A2G U15C U47C U100C A138U | 0
A24U A77G A107G | 0.79
U29A U62C C71U | 0.02
U46C U47A G88U U119C | 0.01
U9C A31G C56A U91C | 0.2
A24U U39A U115A | 1.52
A59G A77G U96A G126U | 0.06
A31C C120A A138G | 1.07
C19U A43G U46C A59G | 0.24
U62C A64G U134A | 0.06
U46C G49U U109A U119C | 1.2
A31G A69U U102C | 0.06
U1C U46C U81C A117U | 0.79
